From the RNAGym collection of RNA variant scans (doi:10.1101/gad.245936.114)
Variants at the floor of the assay are shown more often than the library holds them.

B1: tRNA (parent)
chain: CUCUCGGUAGCCAAGUUGGUUUAAGGCGCAAGACUUUAAUUUAUCACUACGAAAUCUUGAGAUCGGGCGUUCGACUCGCCCCCGGGAGAUUUUUUCCUCGAGCAA

Variants of: B1
Test: nonsense suppression (GFP-seq) (ratio to wild type); higher = more function; SUP4oc tRNA, yeast GFP reporter sort-seq
How it was run: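 Sorted GFP/RFP bins of yeast were each Illumina-sequenced with a phred ≥30 cutoff; the cells held a genome-integrated ochre-suppressor tRNA variant from a library with ~3% random mutations, a galactose-driven GFP ochre reporter, and RFP. Culture was in raffinose/galactose medium containing 80 mg/L adenine. Nonsense suppression, termed GFPSEQ, is the median GFP/RFP of the bins weighted by each variant's estimated cell share per bin, relative to the unmutated parent tRNA, for variants reaching ≥100 reads and ≥30 cells.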

Variant	nonsense suppression
CACUCGGUAGCCAAGCUGGUUUUAGGCGCAAUAAUUUAAUUUAUCACUACGAAAUCUUAAGAUCGGGCGUUCGACUCGCCCCCGGGAGAUUUUUUCCUCGAGCAA	≤ 0.026
CACUCGGUAGCCAAGUAGGUUUAAGGCGCAGGACUUUAAUUUAUCACUACGAAAUCUUGAGAUCGGGCGUUCGACUCGCCCCCGGGAGAUUUUUUCCUCGAGCAA	≤ 0.026
CACUCGGUAGCCAAGUUGGAUUAAGGCGCAAGACUUUAAUUUAUCACUACGAAAUCUUGAGAUCGGGCUUGCGACUCGCCCCCGGGACAUUUUUUCCUCGAGCAA	≤ 0.026
CACUCGGUAGCCAAGUUGGGUUAAGACGCGAGACUUUAAUUUAUCACUACGAAAUCCUGAGAUCGGGCGUUCUACUCGCCCCCGGGAGAUUUUUUCCUCGAGCAA	≤ 0.026
CACUCGGUAGCCAAGUUGGUAUAAGGCGUAAGACUUUAAUUUAUCACUACGAAAUCUUGAGAUCGGGCGUUCGACUCGCCCCCGGGAGAUUUUUUCCUCGAGCAA	≤ 0.026
CACUCGGUAGCCAAGUUGGUUCAAGGCGCAAGACUUUAAUUUAUCACUACGAAAUCUUGACAUCGGUCGUUCGACUCGGCCCCGGGAGAUUUUUUCCUCGAGCAA	≤ 0.026
CACUCGGUAGCCAAGUUGGUUUAAGGCGCAAGACCUUAAUUUAUCACUACGAAAUCUUGAGAUCGGGCGUUCGACUCGCCCCCGGGAGAUUUUUUCCUCGAGCAA	≤ 0.026
CACUCGGUAGCCAAGUUGGUUUAAGGCGCAAGACCUUAAUUUAUCACUACGAAAUCUUGAGAUCGGGCGUUCGACUUGACCCCGGAAGAUUUUUUCCUCGAGCAA	≤ 0.026
CACUCGGUAGCCAAGUUGGUUUAAGGCGCAAGACGUUAAUUUAUCACUACGAAAUCUUGAGAUCGGGCGUUCGACUCGCCCCCGGGAGAUUUUUUCCUCGAGCAA	≤ 0.026
CACUCGGUAGCCAAGUUGGUUUAAGGCGCAAGACUUUAAUUUAUCACUACGAAACCUUGAGAUCGGGCGUUCGACUAGCCCCCGGGAGAUUUUUUCCUCGAGCAA	≤ 0.026
CACUCGGUAGCCAAGUUGGUUUAAGGCGCAAGACUUUAAUUUAUCACUACGAAAGCUUGAGAUCGGGCGUUCGACUCUCCCCCGGGAGAUUUUUUCCUCGAGCAA	≤ 0.026
CACUCGGUAGCCAAGUUGGUUUAAGGCGCAAGACUUUAAUUUAUCACUACGAAAUCGUGAGAUCGAGCGUUCGACUCGCCCCCGGGAGAUUUUUUCCUCGAGCAA	≤ 0.026
CACUCGGUAGCCAAGUUGGUUUAAGGCGCAAGACUUUAAUUUAUCACUACGAAAUCUGAAGAUCGGGCGUUCGACUCGCCCCCGGGACAUUUUUUCCUCGAGCAA	≤ 0.026
CACUCGGUAGCCAAGUUGGUUUAAGGCGCAAGACUUUAAUUUAUCACUACGAAAUCUGGAGAUCGGGCGUACGACUCGCCCCCGGGAAAUUUUUUCCUCGAGCAA	≤ 0.026
CACUCGGUAGCCAAGUUGGUUUAAGGCGCAAGACUUUAAUUUAUCACUACGAAAUCUUGAGACCGGGCGUUCAACUCGCCCCCGGGAGAUUUUUUCCUCGAGCAA	≤ 0.026
CACUCGGUAGCCAAGUUGGUUUAAGGCGCAAGACUUUAAUUUAUCACUACGAAAUCUUGAGAUCGGGCGGUCGACUCGCCCCCGGGAGAUUUUUUCCUCGAGCAA	≤ 0.026
CACUCGGUAGCCAAGUUGGUUUAAGGCGCAAGACUUUAAUUUAUCACUACGAAAUCUUGAGAUCGGGCGUUCGACCCUCCCCCGGGAGAUUUUUUCCUCGAGCAA	≤ 0.026
CCCUCGGUAGCCAAGUUGGUUUAAGGCGCAAGACUUUAAUUUAUCACUACGAAAUCUUGAGAUCGGGCGUUCGACUCGCCCCCGGGAGAUUUUUUCCUCGAGCAA	0.185
CCCUCGGUCGCCAAGUUGGUUUAAGGGGCAAGACUUUAAUUUAUCACUACGAAAUCUAGAGAUCGGGCGUUCGACUCGCCCCCGGGAGAUUUUUUCCUCGAGCAA	≤ 0.026
CCCUCGGUCGCCAAGUUGGUUUAAGGCGCAAGACUUUAAUUUAUCACUACGAAAUCUUGAGAUCGGGCGUUCGAAUCGCCCCCGGGAGAUUUUUUCCUCGAGCAA	0.038
CCCUCGGUCGCCAAGUUGGUUUAAGGCGCAAUACUUUAAUUUAUCACUACGAAAUCUUGAGAUCGGGCGUUCGACUCGCCCCCGCGAGAUUUUUUCCUCGAGCAA	≤ 0.026
CCCUCGGUGGCCAAGUUGGUUUAAGGCGCAAGACUUUAAUUUAUCACUACGAAAUCUUGAGAUCGGGCGUUCGACUCGCCGCCGGGAGAUUUUUUCCUCGAGCAA	≤ 0.026
CCCUCGGUGGCCAAGUUGGUUUAAGGCGCAAGACUUUAAUUUAUCACUACGAAAUCUUGAGAUCGGGCGUUCAACUCGCCCCCGGGAGAUUUUUUCCUCGAGCAA	≤ 0.026
CCCUCGGUGGCCAAGUUGGCUUAAGGCGCAAGACUUUAAUUUAUCACUACGAAACCUUGAGAUCGGGCGUUCGACUCGCCCCCUGGAGAUUUUUUCCUCGAGCAA	≤ 0.026
CCCUCGGUAGCCCAGUUGGUUUAUGGCGCAGGACUUUAAUUUAUCACUACGAAAUCUUGAGAUCGGGCGUUCGACUCGCCCCCGGGAGAUUUUUUCCUCGAGCAA	≤ 0.026
CCCUCGGUAGCCUAGCUGGUUUAAGGCGCAAGACUUUAAUUUAUCACUACGAAAUCUUGAGAUCAUGCGUUCGACUCGCCCCCGGGAGAUUUUUUCCUCGAGCAA	≤ 0.026
CCCUCGGUAGCCACGUUGGUUUAAGGCGCAAGACUUUAAUUUAUCACUACGAAAUCUUGAGAUCGGGCGUUCGACUCGCCCCCGGGAGAUUUUUUCCUCGAGCAA	≤ 0.026
